Source: PMC12136788
The other results are listed elsewhere or left out.

T1: UNK ZnF1-3 (human, UniProt Q9C0B0 31-174)
T1 sequence: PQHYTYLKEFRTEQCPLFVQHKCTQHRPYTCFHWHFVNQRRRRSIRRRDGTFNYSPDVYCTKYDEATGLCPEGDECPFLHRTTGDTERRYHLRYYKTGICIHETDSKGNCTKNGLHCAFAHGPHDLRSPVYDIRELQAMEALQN

B1: chr5:128440902:128440903:+_ENSG00000066583_ENST00000173527|hu_mus|hu_hu_hu_mus_True|8_88 (ssRNA)
RNA: GGGAGUUCUACAGUCCGACGAUCUUGAACGGUGCUGCCAAGUCCUUUAGGGUAUUGUUCCGUUAUGAUAACUGGAAUCCCUAAGAUCCGAGCUCCUUGCAACAGUCUCUGUCCCACACUAAUGAUGUCCCCAAAAUAUUUGAUCAACAGAGGAUUGAGCAUCA
B2: chr17:57724971:57724972:+_ENSG00000141367_ENST00000269122|hu_hu|FALSE|FALSE (ssRNA)
RNA: GGGAGUUCUACAGUCCGACGAUCCUGUGCAGAUAUACCAGUCAGAAGUAACCACUUUUGUUUUGCAUCUGUACGGUAAUUGAUAAUCUGGCACCCUGCAAGGCUAGAAUGGCGAUCAAACAUUUUCACUGGCUGAGACUCUCCCAACAGAGGAUUGAGCAUCA
B3: chr5:145543945:145543946:-_ENSG00000133706_ENST00000545646|hu_hu|FALSE|FALSE (ssRNA)
RNA: GGGAGUUCUACAGUCCGACGAUCCUGAAUAGCCAGUGGCGGGAAAUAAUCAAGCCAAUGUUCUGCUUCAGAAAAUUUUACUAUCUCUUCAUCAGACAGGCCAAGGGAUUUCAUAAUGCCCCACUGGUAUUUAGAAGAUCCAGCCAACAGAGGAUUGAGCAUCA
B4: chr11:51934471:51934472:+_ENSMUSG00000020349_ENSMUST00000020608|perfect_dup|FALSE|FALSE (ssRNA)
RNA: GGGAGUUCUACAGUCCGACGAUCGAUUGCAGCUUGGUUACCACAACGAUAGCAAUAGUUUGGAGCACUGAAAAUUGUUACUACGUUCCGGUCAUGGCACCAGUUAUAUCCCUCCAUCACCAGCUGGUGAGCUCUGGACACCAACAACAGAGGAUUGAGCAUCA
B5: 129712606_129712726_1589_CDS_ENSMUSG00000001052_ENSMUST00000001079|mouse|control|control (ssRNA)
RNA: GGGAGUUCUACAGUCCGACGAUCGCUGGGAUGUGCUGCGGGCAUGGGUGGUGGUGCUGCGUUCUGAUAGGCAGGCUGCAGAGCUGGGUAGCCAUAGCCAAAAGGCUUUGCCACCUUGGCUGGCUGAGCUGCAGGGGGAGUGGGCAACAGAGGAUUGAGCAUCA
B6: chr5:121768680:121768681:+_ENSMUSG00000042744_ENSMUST00000119892|mus_mus|FALSE|FALSE (ssRNA)
RNA: GGGAGUUCUACAGUCCGACGAUCUUGGGCAGUUUUCUUCUUGUCACCUGUGGACAGCCCACUCACAGUCUCUGGGUUGAUGGAUUCCACUGGUGGUCCGACACUGACAAUGAGGCCCGACUGUGCCCACUUGGUUGCUUUCCUCAACAGAGGAUUGAGCAUCA
B7: chr2:134423880:134423881:-_ENSMUSG00000034723_ENSMUST00000038228|mus_mus|FALSE|FALSE (ssRNA)
RNA: GGGAGUUCUACAGUCCGACGAUCUUUCUAGCCUCAAGAGAGUGCUGGGGAGCUGUGGUACCUGAUGUUUCUGACCUGACUAAAACACAUGCUUAACAACGACGGCAAAGACUUCCUGCACUUUAAGGAUGCUCUGGUUUUGCUCAACAGAGGAUUGAGCAUCA
B8: chr12:109526192:109526193:-_ENSG00000189046_ENST00000429722|hu_hu|FALSE|FALSE (ssRNA)
RNA: GGGAGUUCUACAGUCCGACGAUCGUGGGCCAGCGGCAGCCUGACCACCGCCACCCUCCUGGAGGGGCUUUUCCCACGGGAAUCCUUAUGCCGGAAGACAAAGUCUCUGCAGGCACCGAAGGAGACAGAGGCAAUGGGGCUCCCCAACAGAGGAUUGAGCAUCA
B9: chr2:155973683:155973684:-_ENSMUSG00000027620_ENSMUST00000109587|mus_mus|FALSE|FALSE (ssRNA)
RNA: GGGAGUUCUACAGUCCGACGAUCCAUGGACAUUUAAAACAGCAGAACAAGAGAACAGCUUUGCAUAAAGUAGGAUUUGCUAGUUAGGGAUAAUGAGCACACUGCAUUCCUGUUAACAUUUUUAUUUUUCAAGGUAACAGGAGUCAACAGAGGAUUGAGCAUCA
B10: chr14:66974463:66974464:+_ENSMUSG00000022044_ENSMUST00000074523|mus_hu|mus_mus_mus_hu_False|28_78 (ssRNA)
RNA: GGGAGUUCUACAGUCCGACGAUCUUGUAGGACGACUUAUUCAGGGGAUCGGCCAGGAAGCAAGAGCAGAACAAGGACACCAGCGGGAGCUCCUUCAUCUUCUCUUUAUAGGCUGCAAGGGUCAUGUUUCUGGGAUCUGGUGGCCAACAGAGGAUUGAGCAUCA
B11: chr7:92085846:92085847:+_ENSG00000157259_ENST00000287957|hu_hu|FALSE|FALSE (ssRNA)
RNA: GGGAGUUCUACAGUCCGACGAUCGGGGCUACAGGCGUGAGCCACCACACCAGGCCUGGAAACCCAGUUUUAAUUUGUGAACUACAAAUGGUUGGCAACUGAUUCCUUAAUUGUUAUUGCAGGAGUAGGCCCAACAUGAGUCCACAACAGAGGAUUGAGCAUCA
B12: 48531223_48531343_1013_3pUTR_ENSMUSG00000023994_ENSMUST00000046719|mouse|control|control (ssRNA)
RNA: GGGAGUUCUACAGUCCGACGAUCCUUCUGCCUCUAGCUUAGCCCGUGCUUGUCUCCUCUUAAGGAUGCGGUGAUACUGUUUGGCAUUCACAUACAGGGGCUCUUCUUCCAGCAUCUCUGCUCCAGGUAAAGGGAUUCUUUGGACAACAGAGGAUUGAGCAUCA
B13: chr3:10015032:10015033:+_ENSMUSG00000027533_ENSMUST00000029046|mus_mus|mus_mus_mus_hu_True|58_108 (ssRNA)
RNA: GGGAGUUCUACAGUCCGACGAUCGUUGUUGCCAUCACAAGUGAUGAUACAAUCUGGCUUGGCCAUUGCGCCCAUUUUCCUAAGAGCUAUUCCCACUCCUAGCUCCUUCAUGUAUUCAUCAAAGCCUUUGCUGUCCACCAGGCGCAACAGAGGAUUGAGCAUCA
B14: chr9:51871721:51871722:+_ENSMUSG00000032050_ENSMUST00000163153|mus_hu|FALSE|FALSE (ssRNA)
RNA: GGGAGUUCUACAGUCCGACGAUCUGUUUUCACCACCUGGUCAAAAAGUUGUUUGCCAGUUGUAUUGGGCUGAAUGGCAAAUUCCAGCUCAGCAUCCAUUGUAGUUACUCUUACGUUGAUUGGUUUCGGCAUUUUCUUUCUCUUCAACAGAGGAUUGAGCAUCA
B15: chr20:42825305:42825306:-_ENSG00000132823_ENST00000255174|hu_mus|motif|central (ssRNA)
RNA: GGGAGUUCUACAGUCCGACGAUCUUAAACCAAAGACAGUUUAAAUGAGUCUCAUAAGCUCUACUAUUGAUGGGCUGGCAUCGGCAGCAUGACAAGUGUUCAAUUCAGUUACAAAUGCACAUUUGAGUUUCUUGCUGCCACAUCCAACAGAGGAUUGAGCAUCA
B16: 78383251_78383371_6022_CDS_ENSG00000149256_ENST00000278550|human|control|control (ssRNA)
RNA: GGGAGUUCUACAGUCCGACGAUCGAGGCUGGGCCGCCCCGCCUGGUCGUACAGAAUCCGAAGGGUGAACUUGCGGUGGUCAUCAUAGAUCUUCUCUGUGCGUGUUACGCGAUCAAAGUCCAGAGAUAGGAGAUUUCGGUUGUGCAACAGAGGAUUGAGCAUCA
B17: chrX:71025408:71025409:-_ENSMUSG00000002010_ENSMUST00000052761|mus_hu|FALSE|FALSE (ssRNA)
RNA: GGGAGUUCUACAGUCCGACGAUCAAACACCGCGUACACAUGGCCAUAGUUGGCCCCAGCCACAAGGCCUGGGCCCCCGACCAGUCCCGCGCAGACAUUGUUGACGAUGUUGCCAUAGAGAUUGGGCAUCACCAUGACAUCAAACAACAGAGGAUUGAGCAUCA
B18: chr5:137527996:137527997:-_ENSG00000094880_ENST00000394886|hu_mus|motif|central (ssRNA)
RNA: GGGAGUUCUACAGUCCGACGAUCUUCUCCUAAGGCAACCAGCAUGCGAGAAUCAUUGGGACGAAGCUGGUGGGCCCGUCGGUAAUAAUAAAGGCAAUAAAAUGGCAUUUUAAGGAUUUCGUAAGUCUGCCCAAGGCCAUACCACAACAGAGGAUUGAGCAUCA
B19: chr1:196642912:196642913:+_ENSMUSG00000026640_ENSMUST00000027952|mus_mus|FALSE|FALSE (ssRNA)
RNA: GGGAGUUCUACAGUCCGACGAUCAAUAGGUACAUGAUAAUAUAUUAGAUAACAAAACCCCGCUUUAUUGGAACAUUUUAAAUACUUCAUUUUCUUAUUAUUUCAUAACACCUGUAAAAACAACAAAACCAGACAACCAGCAUUCAACAGAGGAUUGAGCAUCA
B20: chrX:12171913:12171914:+_ENSMUSG00000031007_ENSMUST00000033313|perfect_dup|motif|central (ssRNA)
RNA: GGGAGUUCUACAGUCCGACGAUCCCUGGUAUAGGCCAAUUUCCAUUUCGGAAAACAACAGACCCUGGUGAUUUUAAUAUACGGAACUCGUUCCCCAAAACACCCGCCACCAACGCCAGGAGCACGACAAACACAGCCAUGGUGCAACAGAGGAUUGAGCAUCA
B21: chrX:71549762:71549763:+_ENSMUSG00000019087_ENSMUST00000019231|mus_mus|mus_mus_mus_hu_False|8_38 (ssRNA)
RNA: GGGAGUUCUACAGUCCGACGAUCAAACCCGUGUACUUCUUAUUGUUAGCACAACAUCACCAGAAAACGAUAACGACAGCCAAGCAGGACAGACAGUCAAGUAGUCUUUCCACACUCCCAAACUCAGAGGAACCUCAAACCUUACAACAGAGGAUUGAGCAUCA
B22: 55033538_55033658_1353_3pUTR_ENSG00000169188_ENST00000374987|human|control|control (ssRNA)
RNA: GGGAGUUCUACAGUCCGACGAUCCUUCUCAUCUUUGGCUUCUGAAGUCUUGGCCUGCCCCUUCACCACUUUGGCCACUGCCUUCUCUUCUGGAGUCUUCGGGGUCAUGAGGGCGCUCAUCAGUGGUAGGCUAGGCAGCUCUAUCAACAGAGGAUUGAGCAUCA

Target: T1, UNK ZnF1-3
Experiment: nsRBNS (natural sequence RNA bind-n-seq); RBNS binding buffer (assumed for nsRBNS): 25 mM Tris pH 7.5, 150 mM KCl, 3 mM MgCl2, 0.01% Triton X-100, 500 ug/ml BSA, 20 U/ml SUPERase-In, 4 C; UNK is unkempt and MSI1 is Musashi-1; names of the RNAs are library labels; protein concentration not given here; high values mean tight binding

Row | Binder | binding signal
1 | B1 | 0.753 enrichment R
2 | B2 | 0.998 enrichment R
3 | B3 | 1.44 enrichment R
4 | B4 | 1.24 enrichment R
5 | B5 | 1.14 enrichment R
6 | B6 | 0.551 enrichment R
7 | B7 | 0.879 enrichment R
8 | B8 | 0.878 enrichment R
9 | B9 | 1.54 enrichment R
10 | B10 | 1.86 enrichment R
11 | B11 | 1.51 enrichment R
12 | B12 | 0.782 enrichment R
13 | B13 | 0.525 enrichment R
14 | B14 | 0.41 enrichment R
15 | B15 | 0.421 enrichment R
16 | B16 | 1.23 enrichment R
17 | B17 | 0.819 enrichment R
18 | B18 | 0.923 enrichment R
19 | B19 | 1.53 enrichment R
20 | B20 | 1.44 enrichment R
21 | B21 | 1.48 enrichment R
22 | B22 | 0.621 enrichment R
